Test results: PubChem BioAssay AID1631 (National Center for Advancing Translational Sciences (NCATS), 2009)
About 890 (0.34%) of roughly 260,000 compounds were called active. This list was built around the results that the source calls inconclusive (neither active nor inactive); the mix of calls is not that of the screen. The call rests on the fitted dose curve; in most records, active means well fitted activation curve with a large enough effect; inconclusive means small, poorly fitted or top-dose-only effect; inactive means no such curve, though single readings can be large or run the other way. No potency is given beside an inconclusive call; the fits are too rough.

Molecular target: Pyruvate kinase PKM (Homo sapiens) (UniProt P14618)
UniProt P14618, sequence (P14618 whole entry, looked up, canonical isoform): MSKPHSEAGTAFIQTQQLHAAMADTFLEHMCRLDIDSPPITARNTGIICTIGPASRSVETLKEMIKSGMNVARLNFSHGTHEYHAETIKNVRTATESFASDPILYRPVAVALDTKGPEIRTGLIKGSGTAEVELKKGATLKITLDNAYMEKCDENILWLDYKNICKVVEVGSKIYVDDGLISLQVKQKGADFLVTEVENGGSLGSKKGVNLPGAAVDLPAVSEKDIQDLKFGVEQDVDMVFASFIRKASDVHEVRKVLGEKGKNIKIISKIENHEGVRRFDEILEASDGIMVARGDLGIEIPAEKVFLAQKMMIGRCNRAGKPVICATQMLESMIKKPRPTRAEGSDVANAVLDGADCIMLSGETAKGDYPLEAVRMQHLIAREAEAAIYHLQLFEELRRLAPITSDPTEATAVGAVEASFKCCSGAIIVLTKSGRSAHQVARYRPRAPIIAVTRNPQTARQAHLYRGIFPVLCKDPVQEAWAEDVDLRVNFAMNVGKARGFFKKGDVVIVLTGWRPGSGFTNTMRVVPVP
Experiment: qHTS Assay for Activators of Human Muscle isoform 2 Pyruvate Kinase; further: nearly all actives have a fitted effect of over 55% in size
Conditions: purified PKM2, Kinase-Glo ATP luminescence; Potency: activation; activation: at 57.5 µM (top of the series), 0% is enzyme alone, no compound
Description: NIH Chemical Genomics Center [NCGC] Matthew G. Vander Heiden, M.D., Ph.D. [Harvard Medical School, 77 Avenue Louis Pasteur, Boston, MA 02115] MLPCN Grant: 1 R03 MH085679-01 NCGC Assay Overview: Human pyruvate kinase muscle 2 (hPK-M2) enzyme was supplied as a highly purified (>95% pure) preparation from Harvard Medical School and assayed for its ability to generate ATP from ADP using phosphoenolpyruvate (PEP) as a substrate. ATP generation was detected in a coupled reaction by luciferase-mediated luminescence, an ATP-dependent process. […] The enzyme was assayed at an intermediate level of activity to screen for both inhibitors and activators.
NCGC Assay Protocol Summary: Three uL of substrate mix (at r.t.) in assay buffer (50 mM Imidazole pH7.2, 50 mM KCl, 7 mM MgCl2, 0.01% Tween 20, 0.05% BSA) was dispensed into white solid bottom 1,536 well microtiter plates so that the final concentrations of substrates in the assay were 0.1 mM ADP and 0.5 mM PEP. 23 nL of compound were delivered by a pin tool and 1 uL of enzyme mix in assay buffer (4 degree Celsius) was added. Plates were incubated at room temperature for 1 hour. Two uL of detection mix (Kinase-Glo, Promega; at 4 degree Celsius protected from light) was added and luminescence read by a ViewLux (Perkin Elmer) at 5 second exposure/plate. Data were normalized to the uninhibited and AC100 inhibition (no enzyme). To monitor activation, the first column contained a titration of the activator, NCGC00031955-01 (16-point 1:2 dilutions in duplicate starting at 57 uM) and the first 16 rows of column 4 contained 57 uM of NCGC00031955-01.
Potency means the concentration at half of the fitted maximal effect; tags describe the fitted curve by direction and shape.

SMILES | Potency
C/C=C\C=C/C(=O)Nc1cccc(C2=NOC3(C2)C[C@H](C(N)=O)N(C(=O)Cc2ccc([N+](=O)[O-])cc2)C3)c1 (some centres not stated) | inconclusive [rising, single point]
COc1cc(/C=N/Nc2nnc3c(n2)[nH]c2ccccc23)ccc1O | inconclusive [rising, single point]
CCn1c(SCC(=O)Nc2cccc(C)c2)nc2nc3c(cc2c1=O)COC(C)(C)C3 | active: 14.1 µM
CC(C)(C)c1cc(NC(=O)COC(=O)c2nccnc2N)n(-c2ccccc2)n1 | inactive
O=C1C=CC(=O)N1Cc1ccccc1 | inactive
Cc1cc(C(=O)CSc2nnc(N)s2)c(C)n1CCc1ccc(F)cc1 | inconclusive [rising, single point]
CC(Sc1nc(N)c2c3c(sc2n1)CSC(C)(C)C3)C(=O)Nc1ccccc1 (configuration not stated) | active: 7.08 µM
O=C(Nc1cccnc1)c1cc(-c2cccc(Cl)c2)on1 | inactive
CC(C)(C)NC(=O)C(c1ccncc1)N(Cc1ccc(F)cc1)C(=O)c1ccc(-c2ccccc2)[nH]1 (configuration not stated) | active: 28.2 µM
O=C(NCCc1ccccc1F)c1ccc2c(c1)OCCO2 | inactive
CC(C)N1C(=O)c2ccccc2N(Cc2ccccc2)S1(=O)=O | inconclusive [rising, single point]
CCN(CC)S(=O)(=O)c1cccc(C(=O)NCC2CCCO2)c1 (configuration not stated) | inactive
O=C(NCc1ccc2c(c1)OCO2)c1ccc(C2SCC(=O)N2Cc2ccco2)cc1 (configuration not stated) | inconclusive [rising, single point]
Cc1ccc(CNC(=O)c2cn(C3CCCCC3)c(=O)c3c2c2ccccc2n3C)o1 | inconclusive [rising, full curve, poor fit]
Cc1ccc(NC(=O)c2c(NC(=O)CCC(=O)O)sc3c2CCCCC3)cc1 | inconclusive [rising, single point]
Cc1cc(NN)nc(NS(=O)(=O)c2ccccc2)n1 | inconclusive [rising, full curve, poor fit]
O=C1CC(c2ccc(OCCCCCOc3ccc(C4CC(=O)NC4=O)cc3)cc2)C(=O)N1 (configuration not stated) | active: 14.1 µM
CCOC(=O)Cc1csc(NS(=O)(=O)c2ccc3c4c(cccc24)C(=O)N3CC)n1 | inconclusive [rising, partial curve]
Cc1c(N2C(=O)/C(=C3/C(=O)N(C)c4ccccc43)SC2=S)c(=O)n(-c2ccccc2)n1C | inactive
COc1ccc(C2c3c(ncn(Cc4ccco4)c3=N)Oc3ccc4ccccc4c32)cc1 (configuration not stated) | inconclusive [rising, single point]
CC(=O)Nc1ccc2c(c1)C(C)(C)C(C)N2C (configuration not stated) | inactive
O=C1CCCC(O)=C1C(C#Cc1ccccc1)C1=C(O)CCCC1=O | inconclusive [rising, single point]
COc1cccc(OCCNc2cc(N3CCOCC3)ccc2[N+](=O)[O-])c1 | inconclusive [rising, single point]
O=C(Nc1nnc(SCc2ccc(Cl)cc2)s1)C1CC(=O)N(Cc2ccccc2)C1 (configuration not stated) | inconclusive [rising, single point]

SMILES | Potency
CN(NC(N)=O)c1ncc(C(F)(F)F)cc1Cl | inactive
Cc1cc(C)cc(NC(=O)CSc2nnc(Cc3cccn3C)n2-c2ccc(F)cc2)c1 | inconclusive [rising, partial curve]
O=C(c1ccco1)N1CCN(S(=O)(=O)c2ccc3c(c2)OCCO3)CC1 | inconclusive [rising, partial curve]
COc1nc(N(CC(N)=O)S(=O)(=O)c2ccccc2)nc(C)c1Cl | inconclusive [rising, partial curve]
COc1ccc(Cn2c(=O)[nH]c3cc(C(=O)N4CCN(Cc5ccccc5)CC4)ccc3c2=O)cc1 | active: 12.6 µM
COc1ccccc1C(CCN(Cc1cccs1)C(C)=O)c1ccco1 (configuration not stated) | inconclusive [rising, single point]
Cc1ccc(S(=O)(=O)Nc2ccc(O)c3cccnc23)cc1 | active: 10 µM
FC(F)(F)c1nnc2sc(-c3ccccn3)nn12 | inconclusive [rising, full curve]
CC(=Nc1cc(C(=O)c2ccccc2)ccc1N)C1=C(O)CC(C)(C)CC1=O | inconclusive [rising, full curve, poor fit]
CCN(Cc1ccncc1)Cc1c(O)ccc2cc(Br)ccc12 | inconclusive [rising, partial curve]
CCn1c(=O)c(=O)n(CC)c2cc(S(=O)(=O)Nc3ccc(C)cc3)ccc21 | active: 10 µM
O=C1C(Cl)=C(N2CCOCC2)C(=O)N1c1ccccc1Cl | inconclusive [rising, single point]
COC(=O)c1ccc(CSc2nnnn2-c2ccccc2)o1 | inconclusive [rising, single point]
CC(=O)C(Sc1nc(N(C)C)nc(N(C)C)n1)C(=O)Nc1ccccc1 (configuration not stated) | inactive
Cc1cc(C2=NNC(=Nc3ccc(S(=O)(=O)N4CCOCC4)cc3)SC2)c(C)n1C | inconclusive [rising, partial curve]
CCN1C(=O)/C(=C2\SC(=S)N(NC(=O)c3ccccc3O)C2=O)c2ccccc21 | inactive
O=C(NC(=S)Nc1ccc2c(c1)OCCO2)c1ccccc1 | inactive
O=C1C2C3C=CC(C4CC34)C2C(=O)N1/N=C/c1ccc(-c2ccc(F)cc2[N+](=O)[O-])o1 (configuration not stated) | inactive
Cc1ccc(/C=C2/NC(=O)N(Cc3ccccc3F)C2=O)o1 | active: 3.55 µM
Cc1cccc(NS(=O)(=O)c2ccc3oc(=O)ccc3c2)c1C | inconclusive [rising, full curve]
COc1ccc(OC)c(/C=N/NC(=O)c2cc(-c3ccc(C)o3)nc3ccccc23)c1 | active: 7.94 µM
Oc1ccc(NCc2cccc(OCc3ccccc3)c2)cc1 | inconclusive [rising, single point]
CCOC(=O)CNC(c1ccccc1)c1cc(Br)ccc1NC(=O)CCN1CCOCC1 (configuration not stated) | inconclusive [rising, single point]
CCN(CC)CCCC(C)Nc1c2ccc(Cl)cc2nc2ccc(OC)cc12 (configuration not stated) | inactive

SMILES | Potency
CCC(=O)N(CCC(c1ccccc1)c1ccco1)Cc1cccs1 (configuration not stated) | inconclusive [rising, single point]
NS(=O)(=O)c1ccc(NC(=S)NC(=O)/C=C/c2ccco2)cc1 | inconclusive [rising, partial curve]
CN1CCN(C(=S)NC(=O)c2ccc(S(=O)(=O)N3CCOCC3)cc2)CC1 | inactive
CCS(=O)(=O)Nc1cccc(C2=NN(S(=O)(=O)c3ccccc3)C(c3ccco3)C2)c1 (configuration not stated) | inconclusive [rising, single point]
O=C(Sc1cccc2cccnc12)c1ccc(F)cc1 | inactive
O=C(CSc1nc2[nH]ncc2c(=O)n1-c1ccccc1Br)NCc1ccco1 | inconclusive [rising, single point]
CC(C(=O)Nc1ccccc1C(=O)N1CCOCC1)N(c1ccc(Cl)cc1)S(C)(=O)=O (configuration not stated) | inconclusive [rising, single point]
CCOc1ccc(S(=O)(=O)N2CCN(S(=O)(=O)c3ccc(OCC)cc3)C(C)C2)cc1 (configuration not stated) | inconclusive [rising, full curve]
Cn1c(=O)[nH]c(=O)c2c1nc(SCCN1CCCCC1)n2CCCc1ccccc1 | inactive
Cc1ccc(CC2CC(=O)N(Cc3ccco3)C2=O)cc1 (configuration not stated) | inconclusive [rising, single point]
O=S(=O)(c1ccc(F)cc1F)N1CCCN(c2ccc(C(F)(F)F)cn2)CC1 | inconclusive [rising, single point]
c1ccc(Cn2c(CNc3nc4ccccc4n3CCN3CCCCC3)nc3ccccc32)cc1 | inconclusive [rising, single point]
Cc1ccc2c(CC(=O)NC3=NCCS3)coc2c1 | inactive
Cc1cc2nc(CCN3CCOCC3)n(S(=O)(=O)c3ccc(C(C)(C)C)cc3)c2cc1C | inactive
Cc1ccc(-c2nc(C)c(C(=O)O)s2)cc1 | inactive
O=C(CSc1ccc(-c2ccco2)nn1)Nc1cccc(F)c1 | inconclusive [rising, single point]
CC(=O)Nc1ccc(C2=NNC(=Nc3ccc(S(=O)(=O)N4CCOCC4)cc3)SC2)cc1 | inconclusive [rising, single point]
COc1ccc(C(=O)Cn2cnc3ccccc3c2=O)cc1 | inactive
CCc1cc(C(=O)COc2ccc(F)cc2)c(O)cc1O | inconclusive [rising, single point]
CSc1nnnn1-c1ccc(C(=O)OCC(=O)N2CCOCC2)cc1 | inconclusive [rising, single point]
CN(C)c1ccc(NC(=O)c2ccc(Cn3cc([N+](=O)[O-])cn3)cc2)cc1 | inactive
Cc1ccc(N2C(=O)C3C4C=CC(CNC(=S)Nc5cccc(Cl)c5)(O4)C3C2=O)cc1 (configuration not stated) | inconclusive [rising, partial curve]
NC(=S)n1[nH]c(-c2ccc([N+](=O)[O-])cc2)c(N=Nc2cccc(Cl)c2)c1=O | inconclusive [rising, single point]
CCOC(=O)c1c(C)n(C)c2cc([N+](=O)[O-])c(O)c([N+](=O)[O-])c12 | inactive
